Source: patent publication US20240368258A1 (RUTGERS THE STATE UNIVERSITY OF NEW JERSEY, published 2024)

Target: T1, EphA5 expressed on H460 human lung carcinoma cells (human, UniProt P54756 25-1037)
T1 construct: whole, on cells; H226 cells served as the EphA5-negative cell line; also called native EphA5 target; endogenous EphA5 expressed on the cell surface
Assay: whole cell phage-ELISA, monovalent phage on H460 cells
Procedure: Single scFv clones were produced as monovalent phage and tested for binding on H460 human lung carcinoma (EphA5 positive) and H226 human lung squamous cell carcinoma (EphA5 negative) cell lines in vitro. Briefly, cells were seeded on 96-well plate, blocked and incubated with phage displaying the scFv of interest at different concentrations. After washing, cell surface bound phage were detected with the antiM13-HRP conjugated mAb (GE).

T1 sequence (P54756 25-1037): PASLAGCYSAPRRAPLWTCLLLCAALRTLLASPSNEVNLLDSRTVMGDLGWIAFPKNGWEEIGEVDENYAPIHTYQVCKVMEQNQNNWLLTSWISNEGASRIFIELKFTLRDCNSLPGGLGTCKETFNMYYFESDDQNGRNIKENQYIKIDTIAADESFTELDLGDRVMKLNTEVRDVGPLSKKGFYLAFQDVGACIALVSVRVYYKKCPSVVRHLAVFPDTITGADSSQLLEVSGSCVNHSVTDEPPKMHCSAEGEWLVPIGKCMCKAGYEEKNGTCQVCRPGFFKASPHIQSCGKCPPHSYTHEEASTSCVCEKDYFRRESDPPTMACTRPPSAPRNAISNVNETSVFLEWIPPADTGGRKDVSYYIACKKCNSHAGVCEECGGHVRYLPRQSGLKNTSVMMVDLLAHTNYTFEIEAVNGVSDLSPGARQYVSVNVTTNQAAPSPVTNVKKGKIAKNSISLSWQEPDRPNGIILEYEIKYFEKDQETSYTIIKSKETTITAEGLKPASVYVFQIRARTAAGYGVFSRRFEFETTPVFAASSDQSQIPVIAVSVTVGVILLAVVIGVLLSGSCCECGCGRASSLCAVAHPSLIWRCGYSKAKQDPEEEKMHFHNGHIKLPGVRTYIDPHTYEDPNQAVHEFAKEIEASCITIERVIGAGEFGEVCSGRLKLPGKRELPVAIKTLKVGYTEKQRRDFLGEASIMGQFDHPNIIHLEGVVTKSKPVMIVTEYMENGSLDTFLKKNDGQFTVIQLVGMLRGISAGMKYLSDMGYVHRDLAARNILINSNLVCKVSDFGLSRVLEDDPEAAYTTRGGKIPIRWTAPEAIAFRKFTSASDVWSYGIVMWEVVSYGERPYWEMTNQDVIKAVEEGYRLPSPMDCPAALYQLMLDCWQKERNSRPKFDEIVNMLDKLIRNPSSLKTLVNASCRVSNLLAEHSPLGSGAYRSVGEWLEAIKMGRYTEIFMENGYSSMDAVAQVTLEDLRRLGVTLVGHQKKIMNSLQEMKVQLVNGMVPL

B1: antiEphA5_E31 scFv (scFv)
scFv: SYELIQPPSVSVAPGQTARITCGGSNIRSKSVHWYQQKPGQAPVLVVYDDSDRPSGIPERFSGSNSGNTATLTISRVEAGDEADYYCQVWDSSSDHWVFGGRTKVTVLSGGSTTTSYNVYYTKLSSSGT[about 100 residues left out here]HAAAGDYWGQGTLVTVSS
binding result: binds
